# Laboratory results taken from the supplement of paper PMC8728848.
# The list shows a part of the results.
# How the values were obtained:
# Experiment in all cases: glycan array binding signal (z-score within array); higher = stronger binding
# Details in all cases: glycan notation: IUPAC condensed, linker removed
# Kdn(a2-3)Gal(b1-4)GlcNAc = target: Kdn(a2-3)Gal(b1-4)GlcNAc
# Procedure, shortened: (§1)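 Columns mapping to the same glycan were averaged after glycan names were converted to IUPAC-condensed notation. The data come from 3228 arrays in the Consortium for Functional Glycomics database, limited to those with an available protein sequence. Binding is reported as a within-array Z-score averaged across arrays of one protein sequence and across linkers.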
# [1] = target: Kdn(a2-3)Gal(b1-4)[Fuc(a1-3)]GlcNAc
# Procedure, shortened: as §1
# Kdn(a2-6)Gal(b1-4)GlcNAc = target: Kdn(a2-6)Gal(b1-4)GlcNAc
# Procedure, shortened: as §1
# [2] = target: Man(a1-2)Man(a1-2)Man(a1-3)Man
# Procedure, shortened: as §1
# [3] = target: Man(a1-2)Man(a1-2)Man(a1-6)[Man(a1-3)]Man
# Procedure, shortened: as §1
# Man(a1-2)Man(a1-3)Man = target: Man(a1-2)Man(a1-3)Man
# Procedure, shortened: as §1
# [4] = target: Man(a1-2)Man(a1-3)[Man(a1-2)Man(a1-6)]Man
# Procedure, shortened: as §1
# [5] = target: Man(a1-2)Man(a1-3)[Man(a1-2)Man(a1-6)]Man(a1-6)[Man(a1-2)Man(a1-2)Man(a1-3)]Man
# Procedure, shortened: as §1
# [6] = target: Man(a1-2)Man(a1-3)[Man(a1-2)Man(a1-6)]Man(a1-6)[Man(a1-2)Man(a1-2)Man(a1-3)]Man(b1-4)GlcNAc(b1-4)GlcNAc
# Procedure, shortened: as §1
# [7] = target: Man(a1-2)Man(a1-3)[Man(a1-6)]Man(a1-6)[Man(a1-2)Man(a1-3)]Man(b1-4)GlcNAc(b1-4)GlcNAc
# Procedure, shortened: as §1
# [8] = target: Man(a1-2)Man(a1-6)[Man(a1-3)]Man(a1-6)[Man(a1-2)Man(a1-2)Man(a1-3)]Man
# Procedure, shortened: as §1
# [9] = target: Man(a1-2)Man(a1-6)[Man(a1-3)]Man(a1-6)[Man(a1-2)Man(a1-2)Man(a1-3)]Man(b1-4)GlcNAc(b1-4)GlcNAc
# Procedure, shortened: as §1
# Man(a1-3)[Man(a1-6)]Man = target: Man(a1-3)[Man(a1-6)]Man
# Procedure, shortened: as §1
# [10] = target: Man(a1-3)[Man(a1-6)]Man(a1-6)[Man(a1-2)Man(a1-3)]Man(b1-4)GlcNAc(b1-4)GlcNAc
# Procedure, shortened: as §1
# [11] = target: Man(a1-3)[Man(a1-6)]Man(a1-6)[Man(a1-3)]Man
# Procedure, shortened: as §1
# [12] = target: Man(a1-3)[Man(a1-6)]Man(a1-6)[Man(a1-3)]Man(b1-4)GlcNAc(b1-4)GlcNAc
# Procedure, shortened: as §1
# [13] = target: Man(a1-3)[Man(a1-6)]Man(b1-4)GlcNAc(b1-4)GlcNAc
# Procedure, shortened: as §1
# [14] = target: Man(a1-3)[Man(a1-6)]Man(b1-4)GlcNAc(b1-4)[Fuc(a1-6)]GlcNAc
# Procedure, shortened: as §1
# Man(a1-6)Man = target: Man(a1-6)Man
# Procedure, shortened: as §1
# Man(b1-4)GlcNAc = target: Man(b1-4)GlcNAc
# Procedure, shortened: as §1
# MurNAc(b1-4)GlcNAc = target: MurNAc(b1-4)GlcNAc
# Procedure, shortened: as §1
# Neu5Ac(a2-3)Gal = target: Neu5Ac(a2-3)Gal
# Procedure, shortened: as §1
# [15] = target: Neu5Ac(a2-3)Gal(b1-3)GalNAc
# Procedure, shortened: as §1
# [16] = target: Neu5Ac(a2-3)Gal(b1-3)GalNAc(b1-3)Gal(a1-4)Gal(b1-4)Glc
# Procedure, shortened: as §1
# [17] = target: Neu5Ac(a2-3)Gal(b1-3)GalNAc(b1-3)Gal(b1-4)GlcNAc
# Procedure, shortened: as §1
# [18] = target: Neu5Ac(a2-3)Gal(b1-3)GalNAc(b1-4)[Neu5Ac(a2-3)]Gal(b1-4)Glc
# Procedure, shortened: as §1
# [19] = target: Neu5Ac(a2-3)Gal(b1-3)GalNAc(b1-4)[Neu5Ac(a2-8)Neu5Ac(a2-3)]Gal(b1-4)Glc
# Procedure, shortened: as §1
# [20] = target: Neu5Ac(a2-3)Gal(b1-3)GalNAc6S
# Procedure, shortened: as §1
# [21] = target: Neu5Ac(a2-3)Gal(b1-3)GlcNAc
# Procedure, shortened: as §1
# [22] = target: Neu5Ac(a2-3)Gal(b1-3)GlcNAc(b1-2)Man
# Procedure, shortened: as §1
# [23] = target: Neu5Ac(a2-3)Gal(b1-3)GlcNAc(b1-2)Man(a1-3)[GlcNAc(b1-4)][Neu5Ac(a2-3)Gal(b1-3)GlcNAc(b1-2)Man(a1-6)]Man(b1-4)GlcNAc(b1-4)GlcNAc
# Procedure, shortened: as §1
# [24] = target: Neu5Ac(a2-3)Gal(b1-3)GlcNAc(b1-2)Man(a1-3)[Neu5Ac(a2-3)Gal(b1-3)GlcNAc(b1-2)Man(a1-6)]Man(b1-4)GlcNAc(b1-4)GlcNAc
# Procedure, shortened: as §1
# [25] = target: Neu5Ac(a2-3)Gal(b1-3)GlcNAc(b1-3)Gal(b1-3)GlcNAc
# Procedure, shortened: as §1
# [26] = target: Neu5Ac(a2-3)Gal(b1-3)GlcNAc(b1-3)Gal(b1-4)GlcNAc
# Procedure, shortened: as §1
# [27] = target: Neu5Ac(a2-3)Gal(b1-3)GlcNAc(b1-3)GalNAc
# Procedure, shortened: as §1
# [28] = target: Neu5Ac(a2-3)Gal(b1-3)GlcNAc(b1-4)Gal(b1-4)Glc
# Procedure, shortened: as §1
# [29] = target: Neu5Ac(a2-3)Gal(b1-3)GlcNAc(b1-6)GalNAc
# Procedure, shortened: as §1
binder,measurement,setting,value
"LSECtin (Homo sapiens), Q6UXB4 (protein) MDTTRYSKWGGSSEEVPGGPWGRWVHWSRRPLFLALAVLVTTVLWAVILSILLSKASTERAALLDGHDLLRTNASKQTAALGALKEEVGDCHSCCSGTQAQLQTTRAELGEAQAKLMEQESALRELRERVTQGLAEAGRGREDVRTELFRALEAVRLQNNSCEPCPTSWLSFEGSCYFFSVPKTTWAAAQDHCADASAHLVIVGGLDEQGFLTRNTRGRGYWLGLRAVRHLGKVQGYQWVDGVSLSFSHWNQGEPNDAWGRENCVMMLHTGLWNDAPCDSEKDGWICEKRHNC",glycan array binding signal (z-score),Kdn(a2-3)Gal(b1-4)GlcNAc,-0.141
same,glycan array binding signal (z-score),[1],-0.169
same,glycan array binding signal (z-score),Kdn(a2-6)Gal(b1-4)GlcNAc,-0.149
same,glycan array binding signal (z-score),[2],-0.151
same,glycan array binding signal (z-score),[3],-0.121
same,glycan array binding signal (z-score),Man(a1-2)Man(a1-3)Man,-0.205
same,glycan array binding signal (z-score),[4],-0.133
same,glycan array binding signal (z-score),[5],-0.17
same,glycan array binding signal (z-score),[6],-0.214
same,glycan array binding signal (z-score),[7],-0.013
same,glycan array binding signal (z-score),[8],-0.144
same,glycan array binding signal (z-score),[9],-0.195
same,glycan array binding signal (z-score),Man(a1-3)[Man(a1-6)]Man,-0.212
same,glycan array binding signal (z-score),[10],-0.21
same,glycan array binding signal (z-score),[11],-0.194
same,glycan array binding signal (z-score),[12],-0.225
same,glycan array binding signal (z-score),[13],-0.028
same,glycan array binding signal (z-score),[14],-0.138
same,glycan array binding signal (z-score),Man(a1-6)Man,-0.171
same,glycan array binding signal (z-score),Man(b1-4)GlcNAc,-0.195
same,glycan array binding signal (z-score),MurNAc(b1-4)GlcNAc,-0.137
same,glycan array binding signal (z-score),Neu5Ac(a2-3)Gal,-0.195
same,glycan array binding signal (z-score),[15],-0.163
same,glycan array binding signal (z-score),[16],-0.166
same,glycan array binding signal (z-score),[17],-0.355
same,glycan array binding signal (z-score),[18],-0.231
same,glycan array binding signal (z-score),[19],-0.128
same,glycan array binding signal (z-score),[20],0.622
same,glycan array binding signal (z-score),[21],-0.034
same,glycan array binding signal (z-score),[22],-0.097
same,glycan array binding signal (z-score),[23],-0.14
same,glycan array binding signal (z-score),[24],-0.132
same,glycan array binding signal (z-score),[25],-0.204
same,glycan array binding signal (z-score),[26],-0.135
same,glycan array binding signal (z-score),[27],-0.119
same,glycan array binding signal (z-score),[28],-0.127
same,glycan array binding signal (z-score),[29],-0.133
